# Source: patent US20250236878A1 (priority 2019, published 2025)
# Assays:
# [1] = test system: soybean plants (varieties AG35X7, AG41X8, AG27X7 and AG30X6); settings: foliar spray V3-V6, Bt.4Q7Flg22 4.0 Fl. oz/Ac, Osmoprotectant 3.2 Fl. oz/Ac, surfactant control = 64.69
# [2] = test system: corn plants (hybrids DKC 60-88 RIB, DKC 58-08 RIB and DKC 64-35 RIB)
substance,measurement,setting,value
Bt.4Q7Flg22 (SEQ ID NO: 226) (Composition 1) (DRLSSGKRINSASDDAAGLAIA; listed as Bacillus thuringiensis),Average Total Yield Bu/Ac (14 locations),[1],64.97 Bu/Ac
same,Average Bu/Ac Increase compared to Control,"[2]; foliar spray V4-V7, 12 locations, vs surfactant control",+4.37 Bu/Ac
same,Average Total Yield Bu/Ac (12 locations),"[2]; foliar spray V4-V7, Bt.4Q7Flg22 4.0 Fl. oz/Ac, ACC Deaminase 8.0 Fl. oz/Ac, surfactant control = 225.51",229.88 Bu/Ac
